Measurements: PubChem BioAssay AID1347430 (National Center for Advancing Translational Sciences (NCATS), 2020)
Hit rate of the full screen: of about 91,000 compounds, about 130 (0.14%) were called active. Inconclusive means that the source gave no clear call. Such entries were picked first, then a sample of the others. Calls come from the whole dose curve; as a rule, active = well fitted inhibition curve with a large enough effect; inconclusive = small, poorly fitted or top-dose-only effect; inactive = flat fitted curve, though single readings scatter. A potency beside an inconclusive call is a rough fit, not a confirmed value.

Test system: Uracil-DNA glycosylase
Test: Primary qHTS assay for inhibitors of Activation Induced Cytidine Deaminase (AID): UDG Counterscreen signal; note: nearly all actives have a fitted effect of over 65% in size
Conditions: FRET deamination/UDG coupled assay, UDG read, 4 h; series mostly up to 115 µM
Potency is the fitted concentration of half-maximal effect; tags give direction and shape of the fitted curve.

Q: How did the Potency turn out when `COc1ccc(C)cc1NS(=O)(=O)c1ccc2c(c1)[C@H]1C=CC[C@H]1[C@@H](c1cccc(Cl)c1)N2` was run?
A: inconclusive: 100 µM [inhibitor, single point]

Q: `CCOc1cc(C(=O)Nc2ccc3oc(-c4ccc(CC)cc4)nc3c2)cc(OCC)c1OCC` was tested. Which Potency did it give?
A: inconclusive: 100 µM [inhibitor, partial curve, poor fit]

Q: How did the Potency turn out when `CC1=C(c2ccc(C)c(C)c2)S(=O)(=O)N=C1N1CCC(C(=O)NCc2ccc(C)o2)CC1` was run?
A: inconclusive: 89.1 µM [inhibitor, single point]

Q: How did the Potency turn out when `CCc1ccc(CNC(=O)c2ccc(-c3nc(CS(=O)(=O)c4ccccc4)c(C)o3)cc2)cc1` was run?
A: inactive

Q: How did the Potency turn out when `O=C(Cn1ccccc1=O)Nc1ccc(Br)cc1Br` was run?
A: inactive

Q: For `Cc1ccc(N(C)C(=O)c2cnc(N3CCOCC3)c3ccccc23)cc1C`, which Potency is on record?
A: inconclusive: 89.1 µM [inhibitor, single point]

Q: With `COc1ccc(S(=O)(=O)NCCc2csc(-c3ccc(F)cc3)n2)cc1` as the molecule, how does the Potency read?
A: inconclusive: 89.1 µM [inhibitor, single point]

Q: For `CCN(CC)C(=O)c1sc2c(c1C)c(=O)n(-c1ccc(Cl)c(Cl)c1)c(=O)n2Cc1cc(=O)n2c(C)cccc2n1`, which Potency is on record?
A: inconclusive: 89.1 µM [inhibitor, partial curve, poor fit]

Q: With `Cc1ccc(CNC(=O)c2c3c(nc4ccccc24)C(=O)N(C2CCCCC2)C3)cc1` as the molecule, how does the Potency read?
A: inconclusive: 89.1 µM [inhibitor, single point]

Q: `Cc1ccc(C)c(N2CCN(C(=O)c3ccc(CS(=O)(=O)c4ccc(Br)cc4)o3)CC2)c1` was tested. Which Potency did it give?
A: inconclusive: 39.8 µM [inhibitor, partial curve, poor fit]

Q: How did the Potency turn out when `Cc1ccc(N2CCN(C(=O)c3c(C)oc4ncn(CC(C)C)c(=O)c34)CC2)c(C)c1` was run?
A: inconclusive: 89.1 µM [inhibitor, single point]

Q: Which Potency does the source give for `CCc1ccc(C(=O)c2cn(CC(=O)Nc3cc(C)ccc3C)c3nc(C)ccc3c2=O)cc1` here?
A: inconclusive: 89.1 µM [inhibitor, single point]

Q: `COc1cc(C(=O)NCC(c2cccs2)S(=O)(=O)c2ccc(F)cc2)cc(OC)c1OC` (stereo not drawn) was tested. Which Potency did it give?
A: inconclusive: 89.1 µM [inhibitor, single point]

Q: For `CC(C)Oc1ccc(C(=O)N(Cc2ccco2)c2ccccn2)cc1`, which Potency is on record?
A: inconclusive: 89.1 µM [inhibitor, single point]

Q: With `O=C(NCc1coc(-c2cccs2)n1)c1cccc(C(F)(F)F)c1` as the molecule, how does the Potency read?
A: inactive

Q: With `Cc1ccc(Sc2c(C)nn(C(C)(C)C)c2OC(=O)C(C)(C)C)cc1` as the molecule, how does the Potency read?
A: inconclusive: 89.1 µM [inhibitor, single point]

Q: For `CCc1ccc(CNC(=O)C2CCN(C(=O)c3ccc(-n4c(C)cc5ccccc54)s3)CC2)cc1`, which Potency is on record?
A: inconclusive: 79.4 µM [inhibitor, partial curve, poor fit]

Q: For `CCC1CCCCN1C(=O)CCc1nc2ccccc2c(=O)[nH]1` (stereo not drawn), which Potency is on record?
A: inactive

Q: Which Potency does the source give for `NNc1nncc2ccccc12` here?
A: active: 35.5 µM

Q: How did the Potency turn out when `CCc1ccc(NC(=O)CSC2=Nc3ccccc3C3=NC(CC(=O)NCc4cccs4)C(=O)N23)cc1` (stereo not drawn) was run?
A: inconclusive: 89.1 µM [inhibitor, single point]

Q: For `CNC(=O)c1cccc(-n2c(C)nc3cccnc32)c1C`, which Potency is on record?
A: inconclusive: 100 µM [inhibitor, single point]

Q: With `Cc1cc(Nc2cccc(Cl)c2)nc2ccc(NC(=O)C3CCCCC3)cc12` as the molecule, how does the Potency read?
A: inactive

Q: With `Cc1cc(C)cc(NC(=O)c2nn(CC(C)C)c(=O)c3ccccc23)c1` as the molecule, how does the Potency read?
A: inconclusive: 89.1 µM [inhibitor, single point]

Q: With `CC(C)CN(CC(C)C)C(=S)NCc1ccco1` as the molecule, how does the Potency read?
A: inactive

Q: For `Clc1cccc(-n2ncc3c(NC4CCCCCC4)ncnc32)c1`, which Potency is on record?
A: inconclusive: 79.4 µM [inhibitor, partial curve, poor fit]

Q: How did the Potency turn out when `Cc1ccc2nc3c(c(Nc4ccc(C)c(C)c4)c2c1)CCC3` was run?
A: inconclusive: 89.1 µM [inhibitor, single point]

Q: Which Potency does the source give for `Cc1ccc(S(=O)(=O)c2cn(Cc3ccccc3)c3cc(N4CCCC4)c(F)cc3c2=O)cc1` here?
A: inconclusive: 89.1 µM [inhibitor, single point]

Q: `COc1ccc(Nc2nnc(-c3ccc(C)c(S(=O)(=O)NCc4nc5ccccc5[nH]4)c3)c3ccccc23)cc1` was tested. Which Potency did it give?
A: inconclusive: 2.82 µM [inhibitor, partial curve, poor fit]

Q: `Cc1ccc(NC(=O)c2c(C)nc3sc(C(=O)Nc4ccc(F)cc4)c(N)c3c2-c2ccc(Cl)cc2)c(C)c1` was tested. Which Potency did it give?
A: active: 89.1 µM

Q: How did the Potency turn out when `COc1cc(/C=C(/C#N)c2ccc(Cl)cc2)cc(Cl)c1OCc1ccccc1C#N` was run?
A: inactive

Q: How did the Potency turn out when `Cc1nc2nc(N(Cc3ccccc3)C(=O)c3ccco3)[nH]n2c(=O)c1Cc1ccccc1Cl` was run?
A: inactive

Q: With `CCOC(=O)Cn1nc(C)c(NC(=O)COc2ccccc2)c1C` as the molecule, how does the Potency read?
A: inconclusive: 28.2 µM [inhibitor, single point]

Q: With `CCOC(=O)N1CCc2c(sc(NCc3cccc(F)c3)c2C(=O)Nc2ccc(OC)cc2)C1` as the molecule, how does the Potency read?
A: inconclusive: 25.1 µM [inhibitor, full curve, poor fit]

Q: Which Potency does the source give for `CCCCNC(=O)c1cc(-c2ccc(C)o2)nc2ccccc12` here?
A: inactive

Q: Which Potency does the source give for `O=[N+]([O-])c1cc(-c2nc(-c3ccccc3)no2)ccc1NCc1cccnc1` here?
A: inconclusive: 100 µM [inhibitor, single point]

Q: `O=C(c1nn(Cc2ccccc2)c(=O)c2ccccc12)N1CCN(c2ccccc2O)CC1` was tested. Which Potency did it give?
A: inactive

Q: For `CCOC(=O)c1c(-c2ccc(OC)c(OC)c2)csc1NC(=O)c1ccc(C)cc1`, which Potency is on record?
A: inconclusive: 79.4 µM [inhibitor, partial curve, poor fit]

Q: For `CC(=O)c1cccc(NC(=O)Cc2ccc(NC(=O)N3CCCCc4ccccc43)cc2)c1`, which Potency is on record?
A: inconclusive: 100 µM [inhibitor, single point]

Q: `COc1cccc(C2/C(=C(\O)c3ccc4c(c3)OCCO4)C(=O)C(=O)N2CCc2ccccc2)c1` (stereo not drawn) was tested. Which Potency did it give?
A: inactive

Q: With `CCC(=O)C1=C(c2ccc(Cl)c(Cl)c2)N(C(=O)CC)n2cnnc2S1` as the molecule, how does the Potency read?
A: inconclusive: 89.1 µM [inhibitor, single point]

Q: For `COc1ccc(-c2nn(C)c3sc(C(=O)N4CCN(c5cc(Cl)ccc5C)CC4)cc23)cc1OC`, which Potency is on record?
A: inconclusive: 89.1 µM [inhibitor, partial curve, poor fit]

Q: `Cc1ccc(Cn2c(=O)n(Cc3ccc(Cl)cc3)c(=O)c3cccnc32)cc1` was tested. Which Potency did it give?
A: inconclusive: 89.1 µM [inhibitor, single point]

Q: For `CCN(c1ccccc1)c1nnc(NC(=O)Nc2cccc(C(F)(F)F)c2)s1`, which Potency is on record?
A: inconclusive: 79.4 µM [inhibitor, partial curve, poor fit]

Q: How did the Potency turn out when `Cc1cc(/C=C/C(=O)c2ccc(F)cc2)cc(C)c1O` was run?
A: inactive

Q: Which Potency does the source give for `COc1ccc(-c2nnc(Nc3ccc(OCC(N)=O)cc3)c3ccccc23)cc1` here?
A: inconclusive: 100 µM [inhibitor, single point]

Q: `COc1cc(OC)c(OC)cc1CN1CCc2nc(N3CCN(c4ncccn4)CC3)ncc2C1` was tested. Which Potency did it give?
A: inconclusive: 70.8 µM [inhibitor, single point]

Q: `OC(CC#CCN1CCN(CC#CCC(O)(c2ccccc2)c2ccccc2)CC1)(c1ccccc1)c1ccccc1` was tested. Which Potency did it give?
A: inactive

Q: How did the Potency turn out when `CCOC(=O)CSC(C(N)=O)c1ccccc1` (stereo not drawn) was run?
A: inconclusive: 112 µM [inhibitor, partial curve, poor fit]

Q: For `CCN(Cc1ccc(OC)cc1)c1ccc(-c2nc(-c3ccncc3)no2)cc1[N+](=O)[O-]`, which Potency is on record?
A: inconclusive: 89.1 µM [inhibitor, partial curve, poor fit]

Q: For `CC(C)Oc1ccc(CNC(=O)Cc2ccc(NC(=O)N3CCSc4ncccc43)cc2)cc1`, which Potency is on record?
A: inconclusive: 79.4 µM [inhibitor, single point]

Q: With `CCN(CC)C(=O)c1sc2c(c1C)c(=O)n(-c1ccc(C)c(C)c1)c(=O)n2CC(=O)Nc1ccc(F)cc1` as the molecule, how does the Potency read?
A: inconclusive: 89.1 µM [inhibitor, partial curve, poor fit]

Q: With `Cc1ccc(C(=O)c2oc3ccccc3c2NC(=O)c2nc(S(C)(=O)=O)ncc2Cl)cc1F` as the molecule, how does the Potency read?
A: inconclusive: 89.1 µM [inhibitor, single point]

Q: With `COc1cccc(NC(CNS(=O)(=O)c2ccc(C)cc2)c2ccccc2)c1` (stereo not drawn) as the molecule, how does the Potency read?
A: inactive

Q: With `COc1cc(OC)cc(C(=O)Nc2ccc3nc(N4CCC(C)CC4)cc(C)c3c2)c1` as the molecule, how does the Potency read?
A: inconclusive: 31.6 µM [inhibitor, partial curve, poor fit]

Q: For `CCCCOc1cccc(C(=O)Nc2cccc3ccc(C)nc23)c1`, which Potency is on record?
A: inconclusive: 25.1 µM [inhibitor, single point]

Q: `CCS(=O)(=O)N1CC(=O)N(c2ccc(C)c(C)c2)C(C)(C(=O)NC2CCCCC2)C1` (stereo not drawn) was tested. Which Potency did it give?
A: inconclusive: 89.1 µM [inhibitor, single point]

Q: With `CCCOc1ccccc1Oc1ncccc1CNC(=O)Nc1ccccc1` as the molecule, how does the Potency read?
A: inactive

Q: `CCc1ccccc1N1CC(c2nc3ccccc3n2Cc2cccc(C)c2)CC1=O` (stereo not drawn) was tested. Which Potency did it give?
A: inconclusive: 89.1 µM [inhibitor, partial curve, poor fit]

Q: How did the Potency turn out when `CC1(C)CC(CNCc2ccco2)CCO1` (stereo not drawn) was run?
A: inactive

Q: With `Cc1cc(C)c(NC(=O)CSc2nnc3[nH]c(=O)cc(C)n23)c(C)c1` as the molecule, how does the Potency read?
A: inactive

Q: `Cc1ccc(CN(C(=O)c2ccccc2[N+](=O)[O-])c2ccccn2)cc1` was tested. Which Potency did it give?
A: inconclusive: 89.1 µM [inhibitor, single point]

Q: `COc1cccc(CNCCSc2nnnn2C)c1OCc1ccc(F)cc1` was tested. Which Potency did it give?
A: inactive

Q: For `Cc1ccc(C2C=C(c3ccc(Cl)cc3)Nc3nc(NC(=O)c4ccco4)nn32)cc1` (stereo not drawn), which Potency is on record?
A: inconclusive: 56.2 µM [inhibitor, partial curve, poor fit]
